Results published in the supplement of paper PMC12217912.
This is one part of the list. The full chains were built here from the parent and the listed change. Values near 0.05 are background.

B1: TEV protease; numbered along this chain (parent)
chain: MGESLFKGPRDYNPISSSICHLTNESDGHTTSLYGIGFGPFIITNKHLFRRNNGTLVVQSLHGVFKVKDTTTLQQHLVDGRDMIIIRMPKDFPPFPQKLKFREPQREERICLVTTNFQTKSMSSMVSDTSCTFPSGDGIFWKHWIQTKDGQCGSPLVSTRDGFIVGIHSASNFTNTNNYFTSVPKNFMELLTNQEAQQWVSGWRLNADSVLWGGHKVFMVKPEEPFQPVKEATQL

Variants of: B1
Test: raw area under fraction-flipped curve 0-4 h after induction (AUC4h, not background-subtracted), DNA-recorder readout of cleavage of the substrate (dimensionless); higher = more cleavage of the substrate by the protease variant
Conditions: temperature: 34 °C; time window: 0-4 h after rhamnose induction
Method: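 In vivo DNA recorder in E. coli TOP10(DE3) ΔrhaA at 34 °C. Each TEVp single-site mutant (parent TEVp 0) is paired with a single-site variant of the 7-mer TEVs (canonical ENLYFQ|S). The substrate sits between flexible linkers in a Bxb1-sfGFP-TEVs-SsrA fusion, so cleavage stabilises Bxb1 and speeds flipping of a recombination array, read by NGS. The value is the raw area under the fraction-flipped curve over 0-4 h after rhamnose induction (AUC4h), with ≥20 reads per time point. It is not background-subtracted; inactive controls average about 0.047.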
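Further: Bxb1 expression induced with 0.2% (w/v) L-rhamnose at OD600 near 0.5, cultures sampled hourly, flipped fraction per protease–substrate barcode pair counted by paired-end Illumina sequencing.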

Variant	area with substrate ENLYAQS	area with substrate ENLYCQS	area with substrate ENLYDQS	area with substrate ENLYEQS	area with substrate ENLYGQS	area with substrate ENLYHQS	area with substrate ENLYLQS	area with substrate ENLYNQS	area with substrate ENLYPQS	area with substrate ENLYRQS	area with substrate ENLYTQS	area with substrate ENLYWQS	area with substrate ENLYYQS	area with substrate ENLYKQS	area with substrate ENLYVQS	area with substrate ENLYIQS	area with substrate ENLYMQS	area with substrate ENLYQQS	area with substrate ENLYSQS
MGESLFKGPRDYNPISSSICHLTNESDGHTTSLYGIGFGPFIITNKHLFRRNNGTLVVQSLHGVFKVKDTTWLQQHLVDGRDMIIIRMPKDFPPFPQKLKFREPQREERICLVTTNFQTKSMSSMVSDTSCTFPSGDGIFWKHWIQTKDGQCGSPLVSTRDGFIVGIHSASNFTNTNNYFTSVPKNFMELLTNQEAQQWVSGWRLNADSVLWGGHKVFMVKPEEPFQPVKEATQL [T72W]	0.0782	0.0631	0.0394	0.0538	0.0537	0.0664	0.0743	0.0571	0.0577	0.0623	0.0677	0.0756	0.0585						
MGESLFKGPRDYNPISSSICHLTNESDGHTTSLYGIGFGPFIITNKHLFRRNNGTLVVQSLHGVFKVKDTTTLQQHLVDGRDMIIIRMPKDFPPFPQKLKFREPQREERICLVTTNFQTKSMSSMVSDTSCTFPSGDGIFKKHWIQTKDGQCGSPLVSTRDGFIVGIHSASNFTNTNNYFTSVPKNFMELLTNQEAQQWVSGWRLNADSVLWGGHKVFMVKPEEPFQPVKEATQL [W141K]	0.0671			0.0602	0.0542	0.0396			0.0565			0.0571		0.0478	0.056				
MGESLFKGPRDYNPISSSICHLTNESDGHTTSLYGIGFGPFIITNKHLFRRNNGTLVVQSLHGVFKVKDTTTLQQHLVDGRDMIIIRMPKDFPPFPQKLKFREPQREERICLVTTNFQTKSMSSMVSDTSCTFPSGDGIFWKHWIQTKDGQCGSPLVSTRDGFIVHIHSASNFTNTNNYFTSVPKNFMELLTNQEAQQWVSGWRLNADSVLWGGHKVFMVKPEEPFQPVKEATQL [G166H]	0.051	0.0521	0.0458			0.0429			0.0555	0.0496		0.0528	0.0459	0.0724	0.047	0.0497	0.04	0.0543	
MGESLFKGPRDYNPISSSICHLTNESDGHTTSLYGIGFGPFIITNKHLFRRNNGTLVVQSLHGVFKVKDTTTLQQHLVDGRDMIIIRMPKDFPPFPQKLKFREPQREERICLVTTNFQTKSMSSMVSDTSCTFPSGDGIFWKHWIQTKDGQCGSPLVSTRDGFIVGIHSASNFTNTNNYFTSVPKNFMELLTNQEAQQWVSGWRLNADSVLWGGHKVFMVKPEEPFQPVKEAIQL [T233I]	0.0783		0.0666	0.0548			0.0979		0.0826		0.0724		0.0754		0.111		0.0605	0.06	
MGESLFKGPRDYNPISSSICHLTNESDGHTTSLYGIGFGPFIITNKHLFRRNNGTLVVQSLHGVFKVKDTTTLQQHLVDGRDMIIIRMPKDFPPFPQKLKFREPQREERICLVTTNFQTKSMSSMVSDTSCTFPSGDGIFWKHWIQTKDGQCGSPLVSTRDGFIVGIHSASNFTNTNNYFTSVPKNFMELLTNQEAQQWVSGWRLNADSVLWGGHKVFMFKPEEPFQPVKEATQL [V220F]	0.078			0.0648	0.0692	0.0586		0.0718	0.075	0.0461		0.0774	0.0567	0.0617		0.113	0.0854	0.063	0.071
MGESLFKGPRDYNPISSSICHLTNESDGHTTSLYGIGFGPFIITNKHLFRRNNGTLVVQSLHGVFKVKDTTTLQQHLVDGRDMIQIRMPKDFPPFPQKLKFREPQREERICLVTTNFQTKSMSSMVSDTSCTFPSGDGIFWKHWIQTKDGQCGSPLVSTRDGFIVGIHSASNFTNTNNYFTSVPKNFMELLTNQEAQQWVSGWRLNADSVLWGGHKVFMVKPEEPFQPVKEATQL [I85Q]	0.053				0.0545	0.0529		0.0487	0.0532			0.0507	0.0388		0.075	0.0499	0.0552	0.0496	
MGESLFKGPRDYNPISSSICHLTNESDGHTTSLYGIGFGPFIITNKHLFRRNNGTLVVQSLHGVFKVKDTTTLQQHLVDGRDMIIIRMPKDFPPFDQKLKFREPQREERICLVTTNFQTKSMSSMVSDTSCTFPSGDGIFWKHWIQTKDGQCGSPLVSTRDGFIVGIHSASNFTNTNNYFTSVPKNFMELLTNQEAQQWVSGWRLNADSVLWGGHKVFMVKPEEPFQPVKEATQL [P96D]	0.0709			0.0696		0.101	0.084		0.0473	0.0797				0.0602	0.137	0.133	0.115		0.0638
MGESLFKGPRDYNPISSSICHLTNESDGHTTSLYGIGFGPFIITNKHLFRRNNGTLVVQSLHGVFKVKDTTTLQQHLVDGRDMIIIRMPKDFPPFPQKLKFREPQREERICLVTTNFQTKSMSSMVSDTSCTFPSGDGIFWKHWIETKDGQCGSPLVSTRDGFIVGIHSASNFTNTNNYFTSVPKNFMELLTNQEAQQWVSGWRLNADSVLWGGHKVFMVKPEEPFQPVKEATQL [Q146E]	0.0642		0.0737		0.0536	0.0689	0.085	0.067	0.0581	0.0591	0.0823	0.0972	0.0679	0.0676	0.103		0.0926	0.0663	
MGESLFKGPRDYNPISSSICHLTNESDGHTTSLYGIGFGPFIITNKHLFRRNNGTLVVQSLHGVFKVKDTTTLQQHLVDGRDMIIIRMPKDFPPFPMKLKFREPQREERICLVTTNFQTKSMSSMVSDTSCTFPSGDGIFWKHWIQTKDGQCGSPLVSTRDGFIVGIHSASNFTNTNNYFTSVPKNFMELLTNQEAQQWVSGWRLNADSVLWGGHKVFMVKPEEPFQPVKEATQL [Q97M]	0.0757		0.063	0.0651	0.0696	0.0701		0.0709	0.0839	0.0647	0.0696	0.07		0.0592	0.112	0.0999		0.0716	0.0711
